Laboratory results: PubChem BioAssay (Tox21)
Inconclusive means that the source gave no clear call. Such entries were picked first, then a sample of the others. For part of these data: Potencies of inconclusive entries are doubtful fits and often do not repeat. Activity calls are given as the source filed them. Unless noted, calls come from the whole dose curve; as a rule, active = well fitted curve in the direction sought with a large enough effect in the repeat runs; inconclusive = weak or mixed curves; inactive = no such curve, though single readings can be large; an effect the other way counts as inactive or inconclusive.

How the values were obtained:
[1] = target: Estrogen receptor beta (Homo sapiens) (UniProt Q92731); assay: qHTS assay to identify small molecule agonists of the estrogen receptor beta (ER-beta) signaling pathway (AID 1259377; active = well fitted activation curve with a large enough effect in the signal ratio in the repeat runs, not every such curve was filed as active; inconclusive = weak or mixed curves, or effect the other way; the % refers to the signal ratio; note: potency is the fitted concentration of half-maximal effect); conditions: ER-beta-UAS-bla HEK293T, beta-lactamase FRET ratio, 16 h; activation: at 92.4 µM (top of the series) unless noted
How it was run: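 Beta-lactamase reporter readout: fluorescence of LiveBLAzer B/G FRET substrate after 2 h at room temperature, following 16 h compound treatment of ER-beta-UAS-bla HEK293T cells at 37C in 2% charcoal-stripped FBS medium.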

[2] = target: Estrogen receptor beta (Homo sapiens) (UniProt Q92731); assay: qHTS assay to identify small molecule antagonists of the estrogen receptor beta (ER-beta) signaling pathway (AID 1259378; active = well fitted inhibition curve with a large enough effect in the signal ratio in the repeat runs, not every such curve was filed as active; inconclusive = weak or mixed curves, or effect the other way; inactive = no such curve, though single readings can be large or run the other way; the % refers to the signal ratio; note: potency is the fitted concentration of half-maximal effect); conditions: ER-beta-UAS-bla HEK293T, beta-lactamase FRET ratio, 16 h; activity, negative = inhibition: at 92.4 µM (top of the series) unless noted
How it was run: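 Antagonist mode: compounds added to beta-lactamase reporter HEK293T ER-beta-UAS cells stimulated with E2 (1nM final), 16 hr at 37C. LiveBLAzer B/G FRET substrate, 2 hours room temperature, fluorescence read-out.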

[3] = qHTS assay to identify small molecule agonists of the estrogen receptor beta (ER-beta) signaling pathway - cell viability counter screen (AID 1259380); note: potency is the fitted concentration of half-maximal effect; nearly all actives have a fitted effect of over 30% in size
How it was run: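 Same-well viability counter screen. Cells: ER-beta-UAS-bla HEK293T, plated 6 hr before compound, in 2% charcoal-stripped FBS. Compound exposure 16 hr, 37C; viability by CellTiter-Glo luminescence after 30 min at room temperature.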

[4] = qHTS assay to identify small molecule antagonists of the estrogen receptor beta (ER-beta) signaling pathway - cell viability counter screen (AID 1259382); note: potency is the fitted concentration of half-maximal effect; nearly all actives have a fitted effect of over 55% in size
How it was run: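 Following a 6 hr plating period, HEK293T cells carrying a UAS-driven beta-lactamase reporter under ER-beta control received compounds and 1nM E2 (final). After 16 hr at 37C and 2 hr substrate loading, CellTiter-Glo luminescence indicated viability.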

[5] = target: Progesterone receptor (Homo sapiens) (UniProt P06401); assay: qHTS assay to identify small molecule antagonists of the progesterone receptor (PR) signaling pathway (AID 1346795; active = well fitted inhibition curve with a large enough effect in the signal ratio in the repeat runs, not every such curve was filed as active; inconclusive = weak or mixed curves; the % refers to the signal ratio; note: potency is the fitted concentration of half-maximal effect; for activity change, negative = inhibition: % is set by controls: 0 for no effect and ±100 for the full control effect); conditions: PR-UAS-bla HEK293T, beta-lactamase FRET ratio, 16 h; activity change, negative = inhibition: at 92.4 µM (top of the series) unless noted
How it was run: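 Beta-lactamase reporter, HEK293T PR-UAS-bla line; 2% charcoal-stripped FBS; 6 hr pre-incubation, 37C/5% CO2. Compound + R5020 1 nM final, 16 hr. LiveBLAzer B/G FRET substrate, 2 hr RT; fluorescence intensity read.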

[6] = qHTS assay to identify small molecule antagonists of the progesterone receptor (PR) signaling pathway - cell viability counter screen (AID 1346798); note: potency is the fitted concentration of half-maximal effect; nearly all actives have a fitted effect of over 50% in size
How it was run: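 Luminescence readout (CellTiter-Glo, 30 min, RT) of viability in PR-UAS-bla HEK293T cells exposed to compound and R5020 agonist for 16 hr at 37C, 5% CO2; run in the same wells as the beta-lactamase reporter read.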

[7] = qHTS assay to identify small molecule agonists of the progesterone receptor (PR) signaling pathway - cell viability counter screen (AID 1346799; calls by dose curve; note: nearly all actives have a fitted effect of over 45% in size; note: potency is the fitted concentration of half-maximal effect)
How it was run: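 HEK293T PR-UAS-bla, 3,000 cells/well, 2% charcoal-stripped FBS; 6 h settle, compound 16 h at 37C/5% CO2; LiveBLAzer 2 h RT, then CellTiter-Glo 30 min RT, luminescence read.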

[8] = qHTS assay to identify small molecule agonists of the androgen receptor (AR) signaling pathway in the presence of an antagonist - cell viability counter screen (AID 1259379); note: potency is the fitted concentration of half-maximal effect; nearly all actives have a fitted effect of over 25% in size
How it was run: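 Fluorescence from CellTiter-Fluor, added after 15 hr and read 1 hr later, gave cell viability. Cells were MDA-kb2 exposed to compounds (15 concentrations) in the presence of 3.0uM nilutamide at 37C, 0% CO2.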

[9] = qHTS assay to identify small molecule agonists of the estrogen receptor alpha (ER-alpha) signaling pathway in the presence of an antagonist - cell viability counter screen (AID 1259386);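 note: potency is the fitted concentration of half-maximal effect; cells exposed to compounds for 22 h at 37 °C before the viability read; nearly all actives have a fitted effect of over 30% in size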
How it was run: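 Cells are starved of estrogens for 5 days in charcoal-stripped serum, seeded for 24hr and co-treated with ICI-182,780 (10.0nM final) and test compounds. After 22hr at 37C, viability is read as CellTiter-Fluor fluorescence.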

[10] = qHTS assay to identify small molecule agonists of the TGF-beta/Smad signaling pathway (AID 1346859; active = well fitted activation curve with a large enough effect in the signal ratio in the repeat runs, not every such curve was filed as active; inconclusive = weak or mixed curves; the % refers to the signal ratio; note: potency is the fitted concentration of half-maximal effect); conditions: SBE-bla HEK293T, TGF-beta/Smad beta-lactamase reporter, 5 h; activation: at 76.8 µM (top of the series) unless noted
How it was run: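 Read-out: fluorescence at 460 and 530 nm (405 nm excitation) after a 2 hr room-temperature incubation with beta-lactamase FRET substrate. SBE-bla HEK 293T cells had been treated with test compounds for 5 hr at 37 C.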

[11] = qHTS assay to identify small molecule antagonists of the TGF-beta/Smad signaling pathway (AID 1346924; active = well fitted inhibition curve with a large enough effect in the signal ratio in the repeat runs, not every such curve was filed as active; inconclusive = weak or mixed curves; the % refers to the signal ratio); conditions: SBE-bla HEK293T, TGF-beta/Smad reporter, beta-lactamase ratio; activity, negative = inhibition: at 76.8 µM (top of the series) unless noted
How it was run: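 SBE-bla HEK 293T cells were plated overnight, then received compound in DMSO plus TGF-beta1 (added as a 0.25 ng/mL solution) and were incubated 5 h at 37 C. Beta-lactamase reporter activity was read after 2 h at room temperature with LiveBLAzer B/G FRET substrate (ex 405, em 460/530 nm).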
Tags give direction and shape of the fitted curve or compound fluorescence and quenching.

Chain of UniProt P06401 (P06401 whole entry, looked up): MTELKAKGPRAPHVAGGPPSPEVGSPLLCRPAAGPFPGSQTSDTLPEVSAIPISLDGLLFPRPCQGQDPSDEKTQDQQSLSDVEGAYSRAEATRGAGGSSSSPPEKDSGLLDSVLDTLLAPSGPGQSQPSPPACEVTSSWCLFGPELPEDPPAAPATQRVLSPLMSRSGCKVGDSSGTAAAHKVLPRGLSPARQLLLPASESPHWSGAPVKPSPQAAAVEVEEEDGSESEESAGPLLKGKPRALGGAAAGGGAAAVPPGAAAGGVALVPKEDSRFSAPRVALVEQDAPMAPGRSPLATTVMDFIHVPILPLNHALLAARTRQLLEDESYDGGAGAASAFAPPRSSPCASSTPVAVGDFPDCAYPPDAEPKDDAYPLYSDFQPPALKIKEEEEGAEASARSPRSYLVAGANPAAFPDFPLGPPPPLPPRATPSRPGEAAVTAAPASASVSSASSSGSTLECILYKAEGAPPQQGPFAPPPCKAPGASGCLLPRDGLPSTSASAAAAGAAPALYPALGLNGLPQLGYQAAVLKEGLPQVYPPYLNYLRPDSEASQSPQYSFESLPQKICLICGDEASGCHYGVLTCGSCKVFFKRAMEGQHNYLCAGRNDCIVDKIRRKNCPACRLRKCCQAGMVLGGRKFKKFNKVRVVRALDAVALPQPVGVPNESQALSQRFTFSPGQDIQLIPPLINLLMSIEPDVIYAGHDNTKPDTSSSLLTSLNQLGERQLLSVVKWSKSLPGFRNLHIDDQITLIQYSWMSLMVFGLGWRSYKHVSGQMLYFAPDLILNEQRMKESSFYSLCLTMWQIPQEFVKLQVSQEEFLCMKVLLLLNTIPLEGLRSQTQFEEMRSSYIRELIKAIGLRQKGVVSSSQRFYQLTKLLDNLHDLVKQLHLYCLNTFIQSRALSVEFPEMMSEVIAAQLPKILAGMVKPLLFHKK
Chain of UniProt Q92731 (Q92731 whole entry, looked up): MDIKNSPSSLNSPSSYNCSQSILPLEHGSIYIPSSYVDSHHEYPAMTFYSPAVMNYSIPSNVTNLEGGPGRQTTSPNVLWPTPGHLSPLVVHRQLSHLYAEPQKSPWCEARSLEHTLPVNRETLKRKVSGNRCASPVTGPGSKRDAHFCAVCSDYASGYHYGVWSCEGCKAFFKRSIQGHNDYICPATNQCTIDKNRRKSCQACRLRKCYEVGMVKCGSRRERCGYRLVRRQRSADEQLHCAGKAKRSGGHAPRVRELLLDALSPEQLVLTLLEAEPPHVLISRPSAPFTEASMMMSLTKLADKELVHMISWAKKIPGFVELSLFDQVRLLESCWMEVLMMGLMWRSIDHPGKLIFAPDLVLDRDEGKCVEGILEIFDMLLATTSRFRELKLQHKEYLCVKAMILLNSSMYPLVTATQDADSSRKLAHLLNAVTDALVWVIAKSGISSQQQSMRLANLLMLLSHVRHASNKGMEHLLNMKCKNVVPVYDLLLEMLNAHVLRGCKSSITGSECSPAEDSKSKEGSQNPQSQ

Structure (SMILES)	Potency [1]	Potency [2]	Potency [3]	Potency [4]	Potency [5]	Potency [6]	Potency [7]	Potency [8]	Potency [9]	activity change, negative = inhibition [5]	Potency [10]	activity, negative = inhibition [11]
CCCCCCCCC(CCCCCC)C(=O)O (stereo unspecified)	inconclusive: 9.69 µM [rising, full curve]	inconclusive: 9.69 µM [rising, full curve]	active: 8.63 µM	inconclusive: 5.45 µM [cytotoxic, full curve]	inconclusive: 68.6 µM [falling, single point]	inconclusive: 12.2 µM [cytotoxic, partial curve, poor fit]	inconclusive: 77 µM [rising, single point]					
CC(C)n1nc(-c2cc3cc(O)ccc3[nH]2)c2c(N)ncnc21	inconclusive: 26.6 µM [rising, partial curve, poor fit]	inconclusive: 33.5 µM [rising, single point]		inconclusive: 0.596 µM [cytotoxic, full curve]				inconclusive: 0.596 µM [cytotoxic, full curve]	inconclusive: 0.168 µM [cytotoxic, full curve]	inconclusive: -32.2% [at 42.5 µM]	inconclusive: 3.38 µM [rising, full curve]	inconclusive: -12.1% [at 35.3 µM]
CCCCC(CC)COP(=O)(O)O (stereo unspecified)	inconclusive: 49.3 µM [rising, partial curve, poor fit]	inconclusive: 49.3 µM [rising, partial curve]	inconclusive: 13.9 µM [cytotoxic, single point]		inconclusive: 55.4 µM [partial curve]	inconclusive: 69.7 µM [rising, single point]	inactive					
